IC50 is the fitted dose that halves viability relative to control wells, and lower means more sensitive; fits outside the tested doses are given as limits. The AUC spans the tested range (256-fold, ending at the top dose) of the same fit; it is 1 without any effect and falls as sensitivity rises.
Compound: Cn1c(=O)n(-c2ccc(C(C)(C)C#N)cc2)c2c3cc(-c4cnc5ccccc5c4)ccc3ncc21 [NVP-BEZ235]
Assay: Viability of human cancer cell lines after 72 h of drug (GDSC screen)
Experimental: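 Human cancer cell lines in 384-well plates, medium with 10% serum, drug for 72 h over a 256-fold dose range (nine 2-fold or five 4-fold steps up to the top dose). Adherent lines were fixed and stained with the nucleic acid dye Syto60, suspension lines read with resazurin; signal relative to control wells, capped at 0 and 100%. One two-parameter sigmoid per drug and line, fitted in a mixed model over all curves with the slope shared within a line.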

Cell Line | AUC | IC50 [nM]
RPMI-7951 (melanoma, adherent, top dose 0.25 µM) | 0.543 | 20.4
CAL-85-1 (breast, adherent, top dose 0.25 µM) | 0.732 | 87.9
H2869 (mesothelioma, adherent, top dose 0.25 µM) | 0.795 | 148
HuO-3N1 (osteosarcoma, adherent, top dose 0.25 µM) | 0.798 | 165
NCI-H2141 (small cell lung carcinoma, suspension, top dose 0.25 µM) | 0.956 | > 250
RF-48 (stomach, adherent, top dose 0.25 µM) | 0.778 | 115
MONO-MAC-6 (acute myeloid leukaemia, suspension, top dose 0.25 µM) | 0.733 | 75.5
C-4-I (cervix, adherent, top dose 0.25 µM) | 0.834 | 183
TOV-112D (ovary, adherent, top dose 0.25 µM) | 0.665 | 45.1
JURL-MK1 (chronic myeloid leukaemia, suspension, top dose 0.25 µM) | 0.689 | 52.6
PCI-4B (head and neck, adherent, top dose 0.25 µM) | 0.474 | 13.3
EB2 (Burkitt lymphoma, suspension, top dose 0.25 µM) | 0.901 | > 250
NCC021 (kidney, adherent, top dose 0.25 µM) | 0.753 | 96.1
HD-MY-Z (Hodgkin lymphoma, adherent, top dose 0.25 µM) | 0.678 | 49.2
NCI-H510A (small cell lung carcinoma, semi-adherent, top dose 0.25 µM) | 0.806 | 115
SK-CO-1 (large intestine, adherent, top dose 0.25 µM) | 0.872 | 214
PC-3 [JPC-3] (lung adenocarcinoma, adherent, top dose 0.25 µM) | 0.885 | > 250
SLVL (B-cell lymphoma, suspension, top dose 0.25 µM) | 0.843 | 193
LB1047-RCC (kidney, adherent, top dose 0.25 µM) | 0.653 | 44.1
PCI-15A (head and neck, adherent, top dose 0.25 µM) | 0.987 | > 250

Cell Line | AUC | IC50 [nM]
ROS-50 (B-cell leukaemia, suspension, top dose 0.25 µM) | 0.848 | > 250
SJRH30 (rhabdomyosarcoma, adherent, top dose 0.25 µM) | 0.824 | 156
A2780 (ovary, semi-adherent, top dose 0.25 µM) | 0.783 | 109
CCF-STTG1 (glioma, adherent, top dose 0.25 µM) | 0.814 | 138
MOG-G-CCM (glioma, adherent, top dose 0.25 µM) | 0.713 | 70
TE-6 (oesophagus, adherent, top dose 0.25 µM) | 0.864 | > 250
MIA-PaCa-2 (pancreas, adherent, top dose 0.25 µM) | 0.638 | 39.1
OV-90 (ovary, adherent, top dose 0.25 µM) | 0.431 | 9.58
MC116 (B-cell lymphoma, suspension, top dose 0.25 µM) | 0.995 | > 250
PCI-30 (head and neck, adherent, top dose 0.25 µM) | 0.638 | 41
C3A (liver, adherent, top dose 0.25 µM) | 0.98 | > 250
MDA-MB-361 (breast, adherent, top dose 0.25 µM) | 0.721 | 65.8
SW900 (lung squamous cell carcinoma, adherent, top dose 2 µM) | 0.5 | 125
HGC-27 (stomach, adherent, top dose 0.25 µM) | 0.543 | 20.1
TC-YIK (cervix, suspension, top dose 0.25 µM) | 0.86 | 166
NCI-H1836 (small cell lung carcinoma, suspension, top dose 0.25 µM) | 0.986 | > 250
HCC202 (breast, adherent, top dose 0.25 µM) | 0.807 | 195
NCI-H1869 (lung squamous cell carcinoma, adherent, top dose 0.25 µM) | 0.814 | 159
LCLC-97TM1 (large cell lung carcinoma, adherent, top dose 0.25 µM) | 0.735 | 79.1
VAL (B-cell lymphoma, suspension, top dose 0.25 µM) | 0.571 | 24.4

From the supplement of paper PMC4967469
